The list shows a part of the results. At the low end of the ranking the order means little. Measured with an extract: partners may take part in the binding.
Target: T1, HNF4alpha8 (COS-7 nuclear extract) (UniProt P41235-5)
T1 sequence: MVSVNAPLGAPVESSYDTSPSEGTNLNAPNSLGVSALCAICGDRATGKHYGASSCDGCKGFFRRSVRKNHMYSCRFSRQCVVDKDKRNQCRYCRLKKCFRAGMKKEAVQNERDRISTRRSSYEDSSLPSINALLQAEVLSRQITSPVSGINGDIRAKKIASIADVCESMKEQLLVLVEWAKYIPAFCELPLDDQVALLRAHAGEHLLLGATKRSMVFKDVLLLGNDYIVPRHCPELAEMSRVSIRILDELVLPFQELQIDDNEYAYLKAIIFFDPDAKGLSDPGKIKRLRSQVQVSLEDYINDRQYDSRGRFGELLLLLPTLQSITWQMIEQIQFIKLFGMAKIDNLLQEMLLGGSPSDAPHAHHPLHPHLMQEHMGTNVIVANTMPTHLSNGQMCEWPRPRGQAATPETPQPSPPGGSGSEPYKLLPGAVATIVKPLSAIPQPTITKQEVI
Experiment: protein-binding microarray
Conditions: COS-7 nuclear extract on double-stranded Agilent 4x180k PBM; binding buffer, salt, pH and temperature not given; high values mean tight binding; double strand, one strand shown; sequences stand for … in …GCCTAGGGAGATTAGAGTATCGGTCGA

Sequence	binding signal (log2 normalized intensity)
GAGAGCAAGGGGGAAGCTGCTAATTGCTTG	-1.33
CCCTACTGTACCCTATGCACCCCACAGTGC	2.43
GCTGTTACTCTAGTACTAGGCAGCATAGGG	-0.707
AGCAGCATTGGACCCTCCCAGCCAAACCCC	4.31
TGAGAGCAGAGGCTGGGGCCCTCTTCCAGC	-1.33
TCTATCTGTATTCTGAAGCCCTACAGCCCA	-0.917
CAGTGTCAGGACCTTGCTCCTGTTCCTTTG	1.79
TATTGAACAAAGATTGCTTGCCAGTTCCCT	-1.25
ACTGGCCCAGCGGATTAATATCCAGAGGCT	-1.35
CATTGATAATTCAGTTTCATTGCACTTTGC	4.62
CTGGAACCATCAGGATTCCAGAGGAAGCAG	-1.01
TTTGTGATTACATTGAGTCCACTGAGATCA	1.91
ACTTAGGATCAGTAGCATTATCTCCTTGCT	-1.27
ACACTCAAGGCAAGAGAGTCATAAAGGGCA	0.0967
GTGCAATAACACCTATGTGCAAAATACCTG	-1.26
CCAGTCTAGGTCTGGAAGGAAGGAGGGAGG	-1.26
ATATCCTTTAGCTCCTGGGCCCAGATATAC	-0.705
TGCACTTTGCCCTCTCTTCAGCACCTTTTA	5.26
TTAGAGCTGGGGCACAATGCTGCAATTCTC	-1.28
GGTCAATATTTTCTTTGTGCTATTTTTGGC	1.9
GGCCCTCACGTGGCCCTGGCATTTGGCTCA	-1.29
TTCCCTCCTCTTCCCTACCCCCTGGGAGTA	4.1
TTAATGTGCTTGTCTGACTGCTGCCAAAGG	-0.967
CTGCGCATACCATATGCATTCCTGCCTCAG	-0.921
GGATCCCATTCATGTGGGTCAACAGACAAA	0.982

Sequence	binding signal (log2 normalized intensity)
ATCTCATCCTGTGACCAAGAATGTCTAACC	-0.428
ATAAGAAAGCAAAGTCCAACACAGAAGCCT	2.56
GTAGAGGTGATTTCAGACTATTTTATTTTC	-1.02
AGACATCGACCTTTGTGGGCTTCAGACATT	2.32
ATAACACAACCCCTACTGTACCCTATGCAC	2.93
AACTCTTTACACAGTTCTGATACATTGGAC	3.58
CCTATGAGTCTGTAAAGTCAAAAACCAGTT	0.646
GTCGCAGAAAACACAGAGATCTGATCAAAG	-1.21
TTCAAGGAATGCAGCTCAGACTGCTTCTCT	-1.3
AAGGTCAGGATCTCAGCCGCGCGGCTTCAG	-1.16
AGATAAACATGAAACAGTCACAGTTATCAG	-1.01
GAATGTGGGAAGCTGGCACAGCAGATGCTG	-1.35
ACTTTGATAGGCACAATCAGCAAACACAGA	-1.3
GCTGCTGAAACATTCAACTGACACTTGTTT	0.527
GCCTTATACAACCTCTGTAATAACTGCAGT	-0.127
TTAAATAGCTCATTAAGCTTAGCGTTATCA	-1.26
CCACCCCCTCTCCTCCCTCGGCCGGCCCGG	4.98
ACACAATATTGACATTCCAGCCTCCAGCTA	-1.31
TTAATAGAAGAAAGCCCTTTTTGGAATGTG	0.929
TGATCTTTACCCTGGAATGCTGTTAGCACT	0.831
CTTTGATCATATGCATTTCCCTAGATCACT	-0.807
AGGCCCCAACATTCCAGAGAAGCACATCCA	-1.28
ATCAAGGATTTTTTCTTGGACTTTGGTCAT	8.58
CTGGGGCCCCACTGGGGTGGAGATGCCGTC	-0.939
TCAGAAGTCCAACATTAGTATCACTGTGAA	1.16

Sequence	binding signal (log2 normalized intensity)
GAGCAGCTGGTGGAGGCGGTGCCATTCACA	-1.36
CTGCTGTTGCACCTCTTATCAAGCGTGCAC	0.0901
GGGCCGGGAAACGCCCTCGGCGCGCACCCA	-1.37
GCCTGTTTCCCTAGCTTATATCCCCTGCCT	2.44
ACCAGGGAAATTACCCTCTAATGGTATTCA	-0.865
AGGAATGCTATCTAGCATGACAAGAATACG	-1.09
AAGCTAAATACCCTCTTTAGGGTAGCCTGG	-0.00996
AGCCCTTATATCCACATGGGTCCAAAGTTC	9.47
ATGGCACAGAGGAGGGACGACTTACTTTTA	-1.31
TCAACTGTTGTGGACCACGTGGCTAGATTG	1.24
GCCCGAGCTGTGCGGTAGGCATTGAGGCAG	-1.36
TCTCCGCTGGCCTGTCTCCTGGCCTATTGT	1.17
AGTGACGTGCAGAGGAGCAACTCATTCACT	-1.16
AGAGATGTCAGCCCAAGATAACCTCCCCTC	4.29
CACCCTTCTATCCCCTTATCTAAATGGAGT	1.93
TAGAGTAACCATTCTTTCTGAGAAAAGCTG	-1.23
TGAATAAACAAATAATGGCTTTTGCCCTCA	4.15
TTTCTGTTTGTCTTACTGTGTTGTCGTATT	2.11
TTTTTTTTTTTTTAACGGTCTGCCCTCTTG	3.39
AATGGAGTTTGGTTTAAAGTTCAAGTCATA	2.74
CCATGCCACAGAATCGCCCCACCCTGCCTG	2.59
CTTCTGAGATGGAGCATGATGAAATTTCCT	-0.998
AACTTCTTGGCCTGCATAGCACTTTCATAA	-0.863

— article PMC10726135
